# From the supplement of paper PMC11417369
# ± gives the standard deviation of the averaged measurements. This is one part of the list.
# Tested on: PfAP2-I AP2 domain 3 (GST-tagged)
# Assay: gcPBM binding intensity (ln(normalized median fluorescence intensity)); higher = stronger DNA binding
# How it was run: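 GST-tagged P. falciparum DNA-binding domains produced in E. coli were incubated for 1 h on an Agilent 4 × 180k array of primer-extended double-stranded 36-bp intergenic genomic probes with negative controls. Binding intensity is the highest Masliner-normalised natural-log median intensity across replicate spots of either probe orientation, with bound protein detected by Alexa488 anti-GST antibody at 488 nm.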
row,Sequence,gcPBM binding intensity (ln)
1,TGTTTATTTATTTGTGTGCACTCAGATTATATTATA [GTGCAC_site9510],10.5 ± 0.42
2,GATGTATTCATACATGCACACGTACATATTTAAATA [CACACA_site9299],8.47 ± 0.37
3,TATTTTAATTTTTGTTGTACGCAAATGTGAGGGCAT [XGTACX_site4663],8.02 ± 0.45
4,TAAACCAAAAAAAGTAGTACAAATATTATAAAAAAA [XGTACX_site8497],7.88 ± 0.49
5,AGGTAGAAAAAAGACACACACATTAGATATTTATAT [CACACA_site6313],7.75 ± 0.7
6,GTTCATAAATTAAACACACACACACGGCTGGATACC [CACACA_site7545],8.47 ± 0.3
7,TATACGTATTACAGAGTGCAATAAACAGTATATATT,10.9 ± 0.66
8,TATATATGTGTATAGAGTACACGTTTTTTTTAATAT [XGTACX_site3128],7.71 ± 0.38
9,AAAAACCTGAACTGTGCATGTCATACTTTTACTTTT [TGCATGCA_site73],8.42 ± 0.98
10,TGTATAAACTTTACGTGTACATGAATAATCTATAAT [XGTACX_site3801],7.93 ± 0.3
11,TAAATACATCTATGCACACAAAAAAATATATATTTT [CACACA_site5027],8.77 ± 0.12
12,TTTATAAATTCTCTTTTTAAAAAATATTTTTATACT [CACACA_negctrl_site427],7.6 ± 0.54
13,TAATCATTTTAGCTTACACACAAAATTTTGTTATAA [CACACA_site2939],7.66 ± 0.62
14,AAAATGGAACTAGGAATAATATAAGAAGATAAAAGG [XGTACX_negctrl_site347],7.91 ± 0.81
15,TTGTACAAAAATAATGCACACTATATCAAGTTTTTT [CACACA_site5898],10.9 ± 0.7
16,ATTATTACACAACGTTGTACATTTCAATATTTTTAT [XGTACX_site5096],8.39 ± 0.34
17,AAAATAATATATAATTGTACTTTTTTTTTATATATA [XGTACX_site6093],7.96 ± 0.18
18,TTTCTTTTTTTTTAATGTACTTTTTTTATAAAAGGT [XGTACX_site5688],7.99 ± 0.23
19,TTTTTTCTTAAAATTTGTACATAGTGCAATTTTTTT [XGTACX_site5509],9.5 ± 0.69
20,TCCTCTTCAATATATATATATTATAAATAAATAAAT [CACACA_negctrl_site1756],8.03 ± 0.21
21,TGTACATATATATATATAATAATAGTTATGTTTATT [CACACA_negctrl_site1474],7.64 ± 0.41
22,TTTTTTTATAGCTAAACACACATAAGAATATATGTT [CACACA_site1099],7.67 ± 0.52
23,ACATACTTTAATATATGTACATAAGAAAAAAAAAAA [XGTACX_site2991],8.01 ± 0.59

row,Sequence,gcPBM binding intensity (ln)
1,AATATAAATTAATTTACACACTAAAAAATATTTATA [CACACA_site7728],7.75 ± 0.49
2,TATTTTTTATATTTATTTATTTAAAGGAGCTTTTCT [GTGCAC_negctrl_site293],7.38 ± 0.43
3,TATAAGAATGACAAGTGTACATATCAAATATATTAG [XGTACX_site7113],7.77 ± 0.38
4,TATACTAAAAAATACACATGCACATACAATATATAT [TGCATGCA_site1016],8.15 ± 0.82
5,AAATTTATATAATATTGTACATTAAAAATTATATAT [XGTACX_site8009],7.73 ± 0.3
6,TGGGTAATACATAATACACACATGTATATGTCGCAT [CACACA_site1125],7.78 ± 0.47
7,AGTATATATACACAAGGGGAATACATATACAAAATT [TGCATGCA_negctrl_site244],7.85 ± 0.61
8,TATGTATAAATATATGCACACATATATATATTTATA [CACACA_site9150],8.85 ± 0.26
9,AAGTTGTATATTGATTGTACTTGTTTAGGGTTATAG [XGTACX_site2953],7.7 ± 0.45
10,ATATATATAATAAACACACACATATACATATATGTA [CACACA_site3462],8.26 ± 0.47
11,TATATATATATAATGTGTACACAAATATATATTATA [XGTACX_site8786],9.2 ± 0.26
12,AGGTAAAATATACATTGTACATATAATTAATTTATT [XGTACX_site626],7.58 ± 0.45
13,TATTAACACTTTATAGAAACAAAAAAATAAGCAAAA [XGTACX_negctrl_site295],7.76 ± 0.71
14,TTTGAATTTTTTAACACACACATGTGTGGATATATA [CACACA_site6872],7.92 ± 0.42
15,ATAAATCATAAGGAGAGTACATAAATAAAATAATCA [XGTACX_site8825],7.7 ± 0.59
16,CTCAATATATTTGATTTACACACTTACAATGTATAT [CACACA_site8982],7.95 ± 0.54
17,AAGTGGCATATAAGTAAAAAATATATACAAGTATAT [GTGCAC_negctrl_site427],8.29 ± 0.057
18,TATTAAAGATACTCGGTATAAATAAATTTTAATGTG [XGTACX_negctrl_site239],7.67 ± 0.4
19,TATAAAAAATATAATTGTACATAAAGGTTAAAATGT [XGTACX_site6138],8.16 ± 0.52
20,TTATTTCTACCTTTTTGTACACATTATTATGAAACC [XGTACX_site5325],8.54 ± 0.35
21,ACAACATGCACACGCACACACAAAAAAAGCATGCAT [CACACA_site6185],8.84 ± 0.13
22,ATGCTTATTATTTATTGTACTGAATAAATATATCTG [XGTACX_site4483],7.79 ± 0.46
23,AAACAAAAAAGAAACACACACTAATTAAATTTTCTT [CACACA_site4746],7.42 ± 0.65

row,Sequence,gcPBM binding intensity (ln)
1,TACAATACCGTACAGGTGCAACTAGCCAAAAAAAAG,9.54 ± 0.29
2,TAAATTAATAAAAAGTGTACATAATATACATATATA [XGTACX_site8604],7.86 ± 0.4
3,TTTAATAATATTTAGGTGCTATATATTATATGTATA,9.72 ± 0.59
4,ATAATTAAAAAAGGAATATATATATATATATATATA [GTGCAC_negctrl_site343],9.38 ± 0.52
5,CGTATGACATAATATTGTACTTTTGATATACATCAT [XGTACX_site7366],7.68 ± 0.44
6,TTTATTTTGTAGTGTACACATATATATATATATATA [CACACA_site5843],9.55 ± 0.59
7,TATATTTTTTTTCTAGTGCATATTATTAATTAAGTT,9.895 ± 0.021
8,TGAGTATTTTTTTAATGTACTTATATTAAAAGGAAA [XGTACX_site6286],7.84 ± 0.14
9,AAAATATTATTTTGTTGTACATATAAAATTTTAAGC [XGTACX_site1866],7.98 ± 0.35
10,TACAAAATAAGACATGCATGTTATACATATATATTT [TGCATGCA_site321],7.58 ± 0.8
11,TATGTCAAAAAATAATGTACAAAAAAATTAACATAA [XGTACX_site5463],7.55 ± 0.45
12,ATATAAAATAGACACGCACACAAAAAAAAAAAAAAA [CACACA_site3522],8.23 ± 0.61
13,CTATAATATAGGTATACACACATATTATAGAATATT [CACACA_site7696],7.5 ± 0.42
14,TATATATGGAAAAGGTGTACATTCAATATATATATA [XGTACX_site3167],9.02 ± 0.014
15,GTTGTATACAATAATGTGCACATATTAATTTGAACT,9.9 ± 0.11
16,AAATGTACAGGACGCACACACATATTTATATTTATA [CACACA_site7689],8.07 ± 0.29
17,TATATATATATAATTGCACACATCAAGTTTGATGTT [CACACA_site1288],9.62 ± 0.26
18,TTTTTTTTTCCTTTTTTTTAAATATTAAAAATGGGA [TGCATGCA_negctrl_site494],7.63 ± 0.53
19,TAAATATATATATATAGTACAATATAATTATGATAT [XGTACX_site258],7.79 ± 0.36
20,CTTATTTACTATTTTTCACACATTACAGATAAACAA [CACACA_site6095],8.16 ± 0.35
21,TAAGTTTTGTTTTTTTGTACTCATTCATACTATCAT [XGTACX_site3638],7.96 ± 0.55
22,TCATTGAAAAAAATCTGTACTGACTATATAGTTGCA [XGTACX_site1566],7.41 ± 0.45
23,TATAATATATGTATATGTACTTATGTTGAGAAACAT [XGTACX_site2117],7.72 ± 0.59

row,Sequence,gcPBM binding intensity (ln)
1,GTTATATAAACATATGCATGTGAAGTGTTTATTAAT [TGCATGCA_site183],8.13 ± 0.79
2,TACCTAATATGTTATACACACATTATGAGTACATAT [CACACA_site2466],7.88 ± 0.3
3,GAATAATATATATGTTCACACATGGTCTTTATTATA [CACACA_site5457],8.2 ± 0.56
4,ATATATTTTCATTTTACACACAAATAAAGATAATTT [CACACA_site2996],7.97 ± 0.43
5,AAAATAAATAAAAAAAGTACATATATAATTTATAAA [XGTACX_site2411],7.75 ± 0.39
6,AAAATACACGCATACACACACACACCGACACATATA [CACACA_site4523],8.15 ± 0.51
7,TGTTGTGATATATTAAAATCGTCCCTTATAATTTTA [GTGCAC_negctrl_site595],7.66 ± 0.52
8,TAATATTATATTTATAGTACATATAATATATATATA [XGTACX_site2964],8.79 ± 0.35
9,GAACACTAATAATGTTGTACACGTAATTATATATTT [XGTACX_site777],8.04 ± 0.36
10,AAACACACACACAAATGTACATATATATATATATTT [XGTACX_site5090],7.92 ± 0.51
11,TTTTCTTAATATTTCGTTTTACATAAACCTTTTAAA [CACACA_negctrl_site660],7.91 ± 0.73
12,AATATAATATTATATAGTACATATTTCTTTTATTTT [XGTACX_site22],7.88 ± 0.23
13,TATATATATATAAGTAGTACAATAATATATTATTTT [XGTACX_site6450],9.09 ± 0.042
14,TTTTACATCATATATAGTACATATATTATACATATA [XGTACX_site8590],7.97 ± 0.53
15,AATAATAATGCTTTAACTTTGTTGTTATTTAGAATA [CACACA_negctrl_site1144],7.36 ± 0.59
16,TATAAATAAAAGTGTACACACATTAAAATCAAACGT [CACACA_site5316],8.4 ± 0.39
17,TCCATGCATTGACACACACACAAAAAAAAATTCTTT [CACACA_site7847],8.52 ± 0.3
18,TTTATTTATTTATGGACACACATACAAATCTTCCAG [CACACA_site4676],7.88 ± 0.61
19,CATACATATATACATACACACACATATAACCAATGT [CACACA_site8679],7.99 ± 0.54
20,TTTGTATTACGTTTGTGTACATATACAATGTGTTTT [XGTACX_site7708],7.82 ± 0.4
